Data taken from PubChem BioAssay AID485294 (National Center for Advancing Translational Sciences (NCATS), 2010).
About 150 (0.041%) of roughly 370,000 compounds were called active. The shares of active, inactive and inconclusive entries below differ from those in the screen. Calls follow the shape of the dose curve; as a rule, active = well fitted inhibition curve with a large enough effect; inconclusive = small, poorly fitted or top-dose-only effect; inactive = flat fitted curve, though single readings scatter. No potency is given beside an inconclusive call; the fits are too rough.

molecular target: Beta-lactamase (Escherichia coli (strain K12)) (UniProt P00811); test: qHTS Inhibitors of AmpC Beta-Lactamase (assay with detergent); settings: AmpC hydrolysis of nitrocefin, absorbance 480 nm, 0.01% Triton; series mostly up to 114 µM; also: nearly all actives have a fitted effect of over 25% in size
Sequence of UniProt P00811 (P00811 whole entry, looked up): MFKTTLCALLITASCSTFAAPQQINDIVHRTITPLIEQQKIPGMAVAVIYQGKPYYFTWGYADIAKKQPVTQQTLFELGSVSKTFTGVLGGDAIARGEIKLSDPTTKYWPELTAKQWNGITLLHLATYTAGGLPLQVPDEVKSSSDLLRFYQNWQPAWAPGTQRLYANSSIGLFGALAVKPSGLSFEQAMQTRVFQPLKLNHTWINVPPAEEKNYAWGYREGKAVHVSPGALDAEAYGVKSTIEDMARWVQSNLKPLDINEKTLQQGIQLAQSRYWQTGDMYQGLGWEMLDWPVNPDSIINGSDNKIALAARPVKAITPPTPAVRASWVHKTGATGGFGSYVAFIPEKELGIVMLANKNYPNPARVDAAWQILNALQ
In short: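 AmpC (5.3 nM in the dispensed reagent) in 20 mM phosphate pH 7.0 with 0.01% (detergent screen) or 0.0001% Triton X-100 was preincubated with compounds for 15 min at room temperature. Nitrocefin was then added from an 800 uM solution, and hydrolysis was followed at 480 nm.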
Potency is read from the fitted curve at half-maximal effect; tags tell the direction and shape of the fitted curve.

Row | Compound | Potency
1 | O=C(Nc1ccc2c(c1)OCCO2)c1c(F)c(F)c(F)c(F)c1F | inconclusive [inhibitor, full curve, poor fit]
2 | CCOC(=O)COn1c(=O)c(-c2cc3ccccc3o2)[n+]([O-])c2ccccc21 | inactive
3 | COc1cccc(-c2nn3c(-c4ccco4)nnc3s2)c1 | inconclusive [inhibitor, full curve, poor fit]
4 | COC(=O)c1ccc2c(c1)S(=O)(=O)NC(=NCCCN1CCOCC1)S2 | inconclusive [inhibitor, full curve, poor fit]
5 | COc1cccc(-c2cc(C(=O)Nc3cccnc3)c3ccccc3n2)c1 | inconclusive [inhibitor, full curve]
6 | CCN(C(=O)c1cccc(S(=O)(=O)N2CCc3ccccc32)c1)C1CCS(=O)(=O)C1 (configuration not stated) | inactive
7 | CN(C)/C=C/C1=C([N+](=O)[O-])C(c2cccc([N+](=O)[O-])c2)NC(=O)N1 (configuration not stated) | inconclusive [inhibitor, full curve]
8 | Cc1ccc(-c2ccc(=O)n(CC(=O)N3CCN(c4cc(Cl)ccc4C)CC3)n2)cc1 | inconclusive [inhibitor, single point]
9 | O=C(Nc1ccc2nc(-c3ccccc3)[nH]c2c1)c1ccco1 | inactive
10 | N#Cc1ccccc1NC(=S)NC(=O)C1CCC1 | inconclusive [inhibitor, partial curve, poor fit]
11 | Cn1c(=O)c2c(nc(CN3CCN(c4ccc(F)cc4)CC3)n2CCN2CCOCC2)n(C)c1=O | inactive
12 | CC(=O)C1=C(C)N(Cc2ccccc2)C(=O)N[C@H]1c1cccc(C(F)(F)F)c1 | inconclusive [inhibitor, full curve, poor fit]
13 | O=C(CN(C(=O)c1csnn1)c1cccc2ccccc12)NCc1ccc(F)cc1 | inconclusive [inhibitor, full curve, poor fit]
14 | CCOC(=O)c1cc(CC)sc1NC(=O)c1ccc(N2CCOCC2)c([N+](=O)[O-])c1 | inconclusive [inhibitor, partial curve]
15 | O=S(=O)(NC1CC2CCC1C2)c1ccc2c(c1)OCCO2 (configuration not stated) | inconclusive [inhibitor, full curve, poor fit]
16 | Cc1nc(C)c(Oc2ccc(Cl)cc2Cl)c(=O)[nH]1 | inactive
17 | CCCn1c2ccccc2c2nnc(SCC(=O)OC)nc21 | inconclusive [inhibitor, partial curve]
18 | COc1ccc(NC(=O)Cn2cc(S(=O)(=O)Cc3ccccc3)c3ccccc32)c(OC)c1 | inconclusive [inhibitor, partial curve]
19 | Cn1c(-c2cccc([N+](=O)[O-])c2)cnc1NCc1cccc(F)c1 | inactive
20 | CCCOc1ccc(CSc2ncn[nH]2)cc1 | inactive
21 | CC(C(=O)N1CCCCC1)n1sc2ccccc2c1=O (configuration not stated) | inactive
22 | CC1CCN(C(=O)Cn2c3ccccc3c3nc4n(c(=O)c32)CCCS4)CC1 | inconclusive [inhibitor, full curve, poor fit]
23 | Cc1ccc(-n2c(N)c(-c3nc4ccccc4n3C)sc2=S)cc1 | inconclusive [inhibitor, single point]

Row | Compound | Potency
24 | Cc1ccc(C(=O)Nc2cccc(C(=O)OCc3cc(=O)n4nc(C5CC5)sc4n3)c2)cc1 | inactive
25 | CCOC(=O)Cc1csc(NC(=O)CSc2nnc(C(C)C)n2CC)n1 | inconclusive [inhibitor, partial curve]
26 | CN1CCC(=NNc2ccc(S(=O)(=O)N3CCOCC3)cc2[N+](=O)[O-])CC1 | inactive
27 | CC(C)(CO)NC(=O)c1ccc2c(c1)C(=O)c1ccccc1-2 | inactive
28 | Cc1ccc(CNC(=O)c2ccc3c(O)c(S(=O)(=O)c4ccc(Cl)cc4)c(=O)[nH]c3c2)cc1 | inactive
29 | CCOc1ccc(C(=O)Nc2cc(OC)ccc2OC)cc1 | inconclusive [inhibitor, partial curve, poor fit]
30 | O=C(NCCO)/C(=C\c1cccs1)NC(=O)c1cccs1 | inconclusive [inhibitor, full curve, poor fit]
31 | COC(=O)c1c(N)sc(C(=O)N2CCOCC2)c1C | inconclusive [inhibitor, single point]
32 | CCC(C)NC(=O)c1cc(-c2ccc3c(c2)OCO3)on1 (configuration not stated) | inactive
33 | Cc1nn(C)c2c1c(-c1ccccc1)cc(=O)n2CC(=O)NC(C)C | inactive
34 | Cc1cccc(N2CCN(C(=O)c3cnn4c(C(F)F)cc(-c5ccccc5)nc34)CC2)c1C | inconclusive [inhibitor, partial curve, poor fit]
35 | CC1(C)Cc2nc3oc4c(N(CCO)Cc5ccccc5)ncnc4c3cc2CO1 | inconclusive [inhibitor, partial curve]
36 | COc1ccc2c(c1)C(=NNC(=O)c1ccccn1)c1cc(OC)ccc1-2 | inconclusive [inhibitor, single point]
37 | NC(=O)C1CCN(S(=O)(=O)c2ccc(N3CCCCS3(=O)=O)cc2)CC1 | inactive
38 | Cc1csc(NC(=O)CSc2nnc(NC(=O)COc3ccc(Cl)cc3)s2)n1 | inconclusive [inhibitor, full curve, poor fit]
39 | COc1cc(/C=c2\s/c(=C\C(=O)C(C)(C)C)[nH]c2=O)cc(OC)c1OC | inactive
40 | Cc1ccc(-c2nc(N3CCCC(C)C3)c3ccccc3n2)cc1 (configuration not stated) | inactive
41 | COC1C/C(=N\O)C2OC(c3ccccc3)OCC2O1 (configuration not stated) | inconclusive [inhibitor, full curve, poor fit]
42 | O=C(COc1ccccc1)Nc1ccc2c(c1)nc1n2CCSC1 | inconclusive [inhibitor, partial curve, poor fit]
43 | C[C@@H](C(=O)NCc1c(F)cccc1Cl)N1C(=O)N2CCc3c([nH]c4ccccc34)[C@@]2(C)C1=O | inconclusive [inhibitor, partial curve]
44 | O=C(COC(=O)CCc1ccccc1)NC(c1ccccc1)c1ccccc1 | inconclusive [inhibitor, partial curve, poor fit]
45 | CCN(CC)S(=O)(=O)c1ccc(C(=O)N2CCN=C2SCc2cccnc2)cc1 | inactive
46 | CC(C)(C)CN1CCNC(=O)C1CC(=O)NCCc1ccccc1C(F)(F)F (configuration not stated) | inactive

Row | Compound | Potency
47 | COc1ccc2sc(-c3ccc(N(C)C)cc3)c(C#CC(C)(C)O)c2c1 | inactive
48 | Cc1cc(C)cc(Oc2coc3cc(OC(=O)c4cccs4)ccc3c2=O)c1 | inconclusive [inhibitor, full curve, poor fit]
49 | O=C(NCc1ccccc1)C1CCC(CNc2c(N3CCCCC3)c(=O)c2=O)CC1 (configuration not stated) | inconclusive [inhibitor, full curve, poor fit]
50 | CC(C)(C)C(=O)OCOC(=O)[C@@H]1N2C(=O)[C@@H](N=CN3CCCCCC3)[C@H]2SC1(C)C | inconclusive [inhibitor, full curve, poor fit]
51 | COc1ccc(/C=N/NC(=O)c2cc(-c3ccccc3OC)nc3ccccc23)cc1COC(C)=O | inactive
52 | CCc1nc(SC)ncc1C(=O)N1CCN(c2cc(C)ccc2C)CC1 | inactive
53 | CCCn1c(NCc2cccs2)nc2ccccc21 | inconclusive [inhibitor, partial curve, poor fit]
54 | CCOC(=O)C1CCN(CC(=O)c2c(C)[nH]c3ccccc23)CC1 | inactive
55 | Cc1ccc(S(=O)(=O)NC(C)C(c2cccs2)N2CCN(c3ccccc3)CC2)cc1 (configuration not stated) | inconclusive [inhibitor, full curve]
56 | COc1cccc(-c2nnc(NC(=O)C(C)C)o2)c1 | inconclusive [inhibitor, full curve, poor fit]
57 | COc1ccccc1C(=O)N1CCN(c2cccc(C(F)(F)F)c2)CC1 | inconclusive [inhibitor, partial curve, poor fit]
58 | CC[C@@H]1Cc2cc(O)ccc2C2=C1c1ccc(O)cc1C[C@H]2CC | inconclusive [inhibitor, full curve, poor fit]
59 | CC(C)Cc1nc(SCC(=O)N2CC(C)OC(C)C2)c2c(=O)n(C)c(=O)n(C)c2n1 (configuration not stated) | inconclusive [inhibitor, single point]
60 | CCC(C)[C@H](NS(=O)(=O)c1ccc(C)cc1)C(=O)N1CCC(C(=O)N[C@H](C(=O)O)c2ccccc2)CC1 (some centres not stated) | inconclusive [inhibitor, full curve, poor fit]
61 | Clc1ccc(Nc2ccc(Cl)nn2)cc1 | inconclusive [inhibitor, full curve, poor fit]
62 | Cc1ccccc1-c1ccc(=O)n(CC(=O)Nc2ccc(C(=O)N3CCCC3)cc2)n1 | inconclusive [inhibitor, single point]
63 | Cc1ccc(-c2csc(N3CCN(c4cc5c(cc4Cl)nc(C)n5CCN4CCCCC4)CC3)n2)cc1 | inactive
64 | CCc1cccc(CC)c1NC(=O)NC1CCCCC1 | inconclusive [inhibitor, full curve, poor fit]
65 | CCN(CC)S(=O)(=O)c1ccc(N2CCN(S(=O)(=O)c3ccc4c(c3)OCCO4)CC2)nc1 | inconclusive [inhibitor, full curve, poor fit]
66 | CCn1c(=O)c(C(=O)Nc2ccccc2)c(O)c2ccccc21 | inconclusive [inhibitor, full curve, poor fit]
67 | CCOC(=O)C(CCCOc1ccc(C(C)CC)cc1)C(=O)OCC (configuration not stated) | inconclusive [inhibitor, full curve, poor fit]
